Publication PMC5440653, “SorLA in Interleukin-6 Signaling and Turnover” (Molecular and Cellular Biology, 2017)

How the values were obtained:
[1] = target: T1, soluble SorLA (SorLA ectodomain, luminal part) (human, UniProt Q92673 82-2137); assay: cell-based or functional assay
[2] = target: T1, soluble SorLA (SorLA ectodomain, …); assay: SPR; Biacore 3000, CM5 chip; purified soluble receptor immobilized (66 to 86 fmol/mm^2), ligand injected at 5 ul/min, 25°C, 10 mM HEPES, 150 mM NaCl, 1.5 mM CaCl2, 1 mM EGTA, 0.005% Tween 20, pH 7.4; Langmuir 1:1 model, global fitting; settings: both partners purified

T1 sequence (Q92673 82-2137): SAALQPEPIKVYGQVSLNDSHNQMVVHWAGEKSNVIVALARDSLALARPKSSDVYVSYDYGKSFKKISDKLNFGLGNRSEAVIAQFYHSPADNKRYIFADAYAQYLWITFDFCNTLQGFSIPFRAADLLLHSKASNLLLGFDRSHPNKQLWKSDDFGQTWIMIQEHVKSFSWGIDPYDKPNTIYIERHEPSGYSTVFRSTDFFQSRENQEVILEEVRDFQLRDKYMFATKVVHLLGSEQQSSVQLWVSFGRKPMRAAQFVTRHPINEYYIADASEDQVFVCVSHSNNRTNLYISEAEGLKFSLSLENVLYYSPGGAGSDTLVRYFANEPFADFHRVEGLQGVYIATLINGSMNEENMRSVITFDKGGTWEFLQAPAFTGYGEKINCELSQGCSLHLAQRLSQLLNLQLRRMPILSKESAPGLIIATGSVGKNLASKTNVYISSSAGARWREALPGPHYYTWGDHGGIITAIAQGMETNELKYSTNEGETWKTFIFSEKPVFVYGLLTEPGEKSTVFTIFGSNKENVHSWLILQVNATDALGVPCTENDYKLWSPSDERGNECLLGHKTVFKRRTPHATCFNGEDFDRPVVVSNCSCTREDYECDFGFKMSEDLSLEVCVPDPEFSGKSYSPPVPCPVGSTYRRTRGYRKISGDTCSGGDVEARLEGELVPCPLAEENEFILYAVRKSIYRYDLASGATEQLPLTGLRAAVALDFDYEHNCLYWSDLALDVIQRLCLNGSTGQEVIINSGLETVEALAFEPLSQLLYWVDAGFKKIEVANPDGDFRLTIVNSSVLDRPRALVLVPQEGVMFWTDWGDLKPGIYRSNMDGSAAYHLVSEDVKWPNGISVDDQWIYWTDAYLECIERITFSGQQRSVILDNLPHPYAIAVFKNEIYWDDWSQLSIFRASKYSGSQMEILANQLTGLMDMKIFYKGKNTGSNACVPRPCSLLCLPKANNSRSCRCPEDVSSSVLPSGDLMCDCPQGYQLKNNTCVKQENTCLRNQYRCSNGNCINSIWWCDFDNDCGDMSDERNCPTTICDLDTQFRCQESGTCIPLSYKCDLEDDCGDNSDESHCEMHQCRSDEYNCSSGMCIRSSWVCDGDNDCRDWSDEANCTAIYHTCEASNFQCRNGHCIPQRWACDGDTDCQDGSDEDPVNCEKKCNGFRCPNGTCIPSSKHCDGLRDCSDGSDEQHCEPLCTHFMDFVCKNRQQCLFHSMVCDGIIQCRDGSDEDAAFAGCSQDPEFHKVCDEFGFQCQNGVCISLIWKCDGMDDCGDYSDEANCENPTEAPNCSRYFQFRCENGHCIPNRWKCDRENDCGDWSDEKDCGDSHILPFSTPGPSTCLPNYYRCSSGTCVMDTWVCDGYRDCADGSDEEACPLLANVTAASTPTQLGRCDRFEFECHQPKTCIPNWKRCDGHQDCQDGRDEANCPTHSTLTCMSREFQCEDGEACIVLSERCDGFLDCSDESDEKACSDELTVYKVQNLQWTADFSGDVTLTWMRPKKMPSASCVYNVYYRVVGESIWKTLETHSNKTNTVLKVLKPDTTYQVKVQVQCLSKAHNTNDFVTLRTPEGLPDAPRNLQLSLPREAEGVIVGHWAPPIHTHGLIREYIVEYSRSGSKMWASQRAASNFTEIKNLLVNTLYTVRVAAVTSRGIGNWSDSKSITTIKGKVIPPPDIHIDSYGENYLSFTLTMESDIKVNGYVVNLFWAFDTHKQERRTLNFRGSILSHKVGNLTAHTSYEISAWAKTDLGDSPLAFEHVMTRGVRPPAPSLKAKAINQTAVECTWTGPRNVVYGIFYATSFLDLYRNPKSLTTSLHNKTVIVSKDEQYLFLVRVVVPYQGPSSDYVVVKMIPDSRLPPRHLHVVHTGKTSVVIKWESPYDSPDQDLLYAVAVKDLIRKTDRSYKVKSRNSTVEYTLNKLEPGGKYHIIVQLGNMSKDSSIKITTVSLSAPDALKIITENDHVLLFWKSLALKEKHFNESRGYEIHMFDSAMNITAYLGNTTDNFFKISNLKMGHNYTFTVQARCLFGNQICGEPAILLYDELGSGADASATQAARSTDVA

B1: Interleukin-6 (ligand)
chain: not shown
notes: interleukin-6, human, recombinant; also called IL-6; recombinant human IL-6; source: bought: Millipore
**Q.** B1 was tested. Which “pSTAT3 (Western blot) in BA/F3 cells expressing gp130, 15 min; sSorLA:IL-6 (40 nM:5 nM, coincubated 3 h at room temperature) with sIL-6R (5 nM), against IL-6 and sIL-6R (5 nM each)” value [1] did it give?
**A.** ~3 fold

**Q.** And the Kd [2]?
**A.** ~29 nM
